{"source": "paper PMC7819943", "about": "“Rice protein-binding microarrays: a tool to detect cis-acting elements near promoter regions in rice”", "note": "The list shows a part of the results."}
{"target": "T1, OsWOX13 (Oryza sativa, UniProt Q5QMM3 1-267)", "T1 sequence": "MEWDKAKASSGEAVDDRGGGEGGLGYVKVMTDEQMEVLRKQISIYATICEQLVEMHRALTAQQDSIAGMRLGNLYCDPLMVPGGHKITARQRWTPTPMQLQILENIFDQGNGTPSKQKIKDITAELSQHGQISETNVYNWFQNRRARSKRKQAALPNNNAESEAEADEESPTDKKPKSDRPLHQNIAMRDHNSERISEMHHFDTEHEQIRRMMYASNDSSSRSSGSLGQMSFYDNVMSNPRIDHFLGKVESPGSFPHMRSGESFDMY", "test": "protein-binding microarray (RPBM); PBS, 2% BSA, 51.3 ng/ul salmon testes DNA, 50 uM zinc acetate, 200 nM TF, 25 C, 1 h; high values mean tight binding", "details": "protein: recombinant; tags: N-terminal polyhistidine and DsRed monomer fusion (pET32a); label: CyDye5-dUTP incorporated in the synthesized complementary strand; 3' TTTTT single-stranded linker to array surface; dsDNA, one strand shown", "summary_of_the_method": "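Using Ni–NTA, transcription factors fused N-terminally to polyhistidine and DsRed were purified after expression in E. coli BL21-CodonPlus. These were incubated at 200 nM with a blocked, double-stranded custom Agilent array for 1 h at 25 °C in a buffer containing 50 µM zinc acetate, and the array was washed. The binding signal is per-feature fluorescence intensity (arbitrary units) on an Axon 4000B scanner.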"}
{"sequence": "TTGTTCCTAAATTGATCATCATATAAGTTTATACACTAAGCGGAGTCACCTAGTGCAG", "binding signal": "16900 fluorescence intensity (a.u.)"}
{"sequence": "TCTGATAGCGAAGATTCTGGTGATCAATCGGACCACAGCACGGAGTCACCTAGTGCAG", "binding signal": "3520 fluorescence intensity (a.u.)"}
{"sequence": "AATAAATTGTGTGGAAATTTAGCTTGCCCAATCAGATTGACGGAGTCACCTAGTGCAG", "binding signal": "16000 fluorescence intensity (a.u.)"}
{"sequence": "CCAAATTGGTTGGAAAATACTCCGTATTGTGTGCTGGCCACGGAGTCACCTAGTGCAG", "binding signal": "32800 fluorescence intensity (a.u.)"}
{"sequence": "AGAAAATTGAAATGAGAGTTTCAAAGACATTGTACCTTTTCGGAGTCACCTAGTGCAG", "binding signal": "6360 fluorescence intensity (a.u.)"}
{"sequence": "TAATCTGCTCACCGTTCTGATTGATCCTAGGTGCTGCATGCGGAGTCACCTAGTGCAG", "binding signal": "11500 fluorescence intensity (a.u.)"}
{"sequence": "AAAATAAATTACCGATTCTATCTATAAACTGCGAGACAAACGGAGTCACCTAGTGCAG", "binding signal": "7910 fluorescence intensity (a.u.)"}
{"sequence": "GCCCCTGTTGACTGTTGTTCACATCTCTTTCAGATATTTTCGGAGTCACCTAGTGCAG", "binding signal": "4760 fluorescence intensity (a.u.)"}
{"sequence": "GAAATGAGGGGTGGGATTGGGATTGGGATTGGAAAATGAACGGAGTCACCTAGTGCAG", "binding signal": "10500 fluorescence intensity (a.u.)"}
{"sequence": "GAAAATGAATTAGGGGCCCTTTGATTAGCAGGATAGAAAACGGAGTCACCTAGTGCAG", "binding signal": "5440 fluorescence intensity (a.u.)"}
{"sequence": "TCGAGACAAATTAAACTATCTCGCTCTTTGTGATCAGGATCGGAGTCACCTAGTGCAG", "binding signal": "8400 fluorescence intensity (a.u.)"}
{"sequence": "AACAAAATTTAAATTTTAGAACTCAGTTTCAAGTTGATTTCGGAGTCACCTAGTGCAG", "binding signal": "18300 fluorescence intensity (a.u.)"}
{"sequence": "AGCTGATAAAATAAATTAAATTACTCCCACCAAGCCAAAACGGAGTCACCTAGTGCAG", "binding signal": "13400 fluorescence intensity (a.u.)"}
{"sequence": "CTTCGGTTTTCATGCCTAATTATTGATAGGTGGGCCCCACCGGAGTCACCTAGTGCAG", "binding signal": "7610 fluorescence intensity (a.u.)"}
{"sequence": "AAATGACTAACATTAATTTCTACCACTTTATAGAAGATATCGGAGTCACCTAGTGCAG", "binding signal": "6240 fluorescence intensity (a.u.)"}
{"sequence": "AATTAATTATTAATATGGGGTGCAGTAAATCACAGGATTACGGAGTCACCTAGTGCAG", "binding signal": "33000 fluorescence intensity (a.u.)"}
{"sequence": "ACCACCTAATCTAAATTATTATTTAGTCCCTCCTTCCCAACGGAGTCACCTAGTGCAG", "binding signal": "10900 fluorescence intensity (a.u.)"}
{"sequence": "AGGAAATTAATTATAGAATATATAATTATTGTTACTACCCCGGAGTCACCTAGTGCAG", "binding signal": "32700 fluorescence intensity (a.u.)"}
{"sequence": "AGATTTGATTAAAATACTTCCTATACATTCATAATACTCTCGGAGTCACCTAGTGCAG", "binding signal": "16600 fluorescence intensity (a.u.)"}
{"sequence": "ACAAAATCTATAGTAATTGCTGATTAAAATCTAGTCCCAACGGAGTCACCTAGTGCAG", "binding signal": "21600 fluorescence intensity (a.u.)"}
{"sequence": "AATTATATAATTAGGACCGAAAGACTAAAGATTGGTGGCTCGGAGTCACCTAGTGCAG", "binding signal": "11800 fluorescence intensity (a.u.)"}
{"sequence": "TTTAGACAGATTGTCCGATTCCGTTTCCAGTAGTATGATTCGGAGTCACCTAGTGCAG", "binding signal": "29800 fluorescence intensity (a.u.)"}
{"sequence": "TTAATAATTAGTACATCCGTCTCAAAATGAATCTATCACTCGGAGTCACCTAGTGCAG", "binding signal": "5990 fluorescence intensity (a.u.)"}
{"sequence": "TCTGACATAGAAAACGAGTTTGCAAACAGTGAGCCCACCTCGGAGTCACCTAGTGCAG", "binding signal": "3520 fluorescence intensity (a.u.)"}
{"sequence": "CAAATCATGTCATCAAAATAATTACTCCGATCGCTAACACCGGAGTCACCTAGTGCAG", "binding signal": "6250 fluorescence intensity (a.u.)"}
{"sequence": "TAAAATTATTATATTTTATAAGAAAGGTAACAAGTAAACACGGAGTCACCTAGTGCAG", "binding signal": "3370 fluorescence intensity (a.u.)"}
{"sequence": "GCAATTTATTAAATAATTATTATTTTGAAAACATCTTAGACGGAGTCACCTAGTGCAG", "binding signal": "15100 fluorescence intensity (a.u.)"}
{"sequence": "GCCAACAATTAATCAAGTAGTACACTCACATGGGTCCTTGCGGAGTCACCTAGTGCAG", "binding signal": "9040 fluorescence intensity (a.u.)"}
{"sequence": "GCAATGCATCACTTGATTGGAGTACTGAATGGAATGCTGCCGGAGTCACCTAGTGCAG", "binding signal": "17300 fluorescence intensity (a.u.)"}
{"sequence": "CGTGATTAGAATCCATCTCCGACCGACCGCACATACAAAGCGGAGTCACCTAGTGCAG", "binding signal": "43300 fluorescence intensity (a.u.)"}
{"sequence": "CACTTAATTAACAGACAAGTGCTACTGGGGACAATGATAGCGGAGTCACCTAGTGCAG", "binding signal": "34000 fluorescence intensity (a.u.)"}
{"sequence": "ACCCAAAATCAACTCAAATCAAATCTCCACTGCTTAAGAGCGGAGTCACCTAGTGCAG", "binding signal": "5720 fluorescence intensity (a.u.)"}
{"sequence": "TATTAACCAATAGACAGATACACTATTACAGTGCCTTGTACGGAGTCACCTAGTGCAG", "binding signal": "3700 fluorescence intensity (a.u.)"}
{"sequence": "CGATAAATTTGGCCGGAATTTATCAGCGTTAGGCACGGACCGGAGTCACCTAGTGCAG", "binding signal": "13200 fluorescence intensity (a.u.)"}
{"sequence": "TAGGAACATGTCATAGATTGGAAGTTTACCCATTAGGAACCGGAGTCACCTAGTGCAG", "binding signal": "6710 fluorescence intensity (a.u.)"}
{"sequence": "TTTGATTTAGGGAACTACCAGACTGGACTTTTCACCTTTTCGGAGTCACCTAGTGCAG", "binding signal": "23700 fluorescence intensity (a.u.)"}
{"sequence": "AGTATCAACCTAATAGTTAATGCACCAATTCAAAACTCGTCGGAGTCACCTAGTGCAG", "binding signal": "3750 fluorescence intensity (a.u.)"}
{"sequence": "GTACAATTTTCATAATTTGCATAAATCGAAAAGAAAAGTGCGGAGTCACCTAGTGCAG", "binding signal": "12400 fluorescence intensity (a.u.)"}
{"sequence": "AAATTGATATCGGATTAAACACGCTGATGAAATGTTCTTGCGGAGTCACCTAGTGCAG", "binding signal": "6190 fluorescence intensity (a.u.)"}
{"sequence": "GTGATTGGGCTATTTGTAATGTTCAGATGGTGAACTGTGCCGGAGTCACCTAGTGCAG", "binding signal": "27600 fluorescence intensity (a.u.)"}
{"sequence": "TCATCATTACTGGATGACGAGCTAATGACGGATTTGCCATCGGAGTCACCTAGTGCAG", "binding signal": "6820 fluorescence intensity (a.u.)"}
{"sequence": "TCACAATTGGTTTGACTGGTCCTGAAGAGAAGAAGAGGCTCGGAGTCACCTAGTGCAG", "binding signal": "10400 fluorescence intensity (a.u.)"}
